According to the BET-seq Pho4 binding data (Le et al. 2018):
Some of the results follow. These are noisy estimates, calculated here from bound and input reads.

target: T1, Pho4 (S. cerevisiae) (UniProt P07270); test: relative binding free energy (BET-seq); higher = weaker binding; conditions: reference: library average
T1 sequence: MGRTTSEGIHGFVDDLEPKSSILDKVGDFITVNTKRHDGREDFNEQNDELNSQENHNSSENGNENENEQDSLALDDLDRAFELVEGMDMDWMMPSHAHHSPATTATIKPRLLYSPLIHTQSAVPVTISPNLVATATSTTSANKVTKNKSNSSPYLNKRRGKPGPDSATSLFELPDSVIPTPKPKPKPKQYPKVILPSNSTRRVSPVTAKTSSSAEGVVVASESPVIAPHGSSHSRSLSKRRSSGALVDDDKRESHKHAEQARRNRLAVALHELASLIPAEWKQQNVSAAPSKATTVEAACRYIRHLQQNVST

Sequence | relative binding free energy
TTAGTCACGTGGCGGC | -0.1 kcal/mol
CGTTGCACGTGGTTCG | -0.03 kcal/mol
GAGGCCACGTGATGGT | 0.13 kcal/mol
AGGCACACGTGGAATG | 0.16 kcal/mol
GTTCGCACGTGGATAG | -0.01 kcal/mol
ATTTACACGTGGTTCC | 0.31 kcal/mol
AGCGGCACGTGGTGTA | -0.26 kcal/mol
TGTGGCACGTGTACGT | -0.09 kcal/mol
TATGTCACGTGACCTT | 0.31 kcal/mol
GTGTGCACGTGAAGGG | 0.3 kcal/mol
ATTTGCACGTGTTGCC | 0.11 kcal/mol
CGGGACACGTGGAATG | 0.06 kcal/mol
GTGTCCACGTGGTGGT | 0.06 kcal/mol
GGTATCACGTGAGGGG | 0.37 kcal/mol
ATGGTCACGTGACGGA | 0.13 kcal/mol
TATGGCACGTGAATGA | 0.14 kcal/mol
ATGCGCACGTGTGTAA | -0.15 kcal/mol
TATTTCACGTGAGGTA | 0.37 kcal/mol
GGATACACGTGATGTT | 0.12 kcal/mol
TGCGTCACGTGATTGG | 0.31 kcal/mol
AAAGACACGTGTGGGC | 0.01 kcal/mol

Sequence | relative binding free energy
GCATGCACGTGTTGTT | 0 kcal/mol
GGTTACACGTGTGCAT | 0.09 kcal/mol
ATGTGCACGTGACGCG | 0.18 kcal/mol
GCGTGCACGTGGCGAG | -0.01 kcal/mol
TAGAGCACGTGGAGGC | -0.26 kcal/mol
TAAGTCACGTGTTAGG | 0 kcal/mol
TGGTTCACGTGGTGTC | 0.22 kcal/mol
CGTGGCACGTGTTGGC | -0.02 kcal/mol
TGGCTCACGTGCGCGG | 0 kcal/mol
AATGACACGTGGTTAA | -0.01 kcal/mol
TAATGCACGTGGTTGG | -0.03 kcal/mol
CAGTTCACGTGGTTTT | 0.29 kcal/mol
TTGATCACGTGTGGTT | 0.2 kcal/mol
TGGGTCACGTGTTCAA | 0.19 kcal/mol
TATAGCACGTGTATTG | -0.12 kcal/mol
CGTAACACGTGGTGGT | 0.08 kcal/mol
AGGAGCACGTGAGTCG | 0.21 kcal/mol
GGTAACACGTGAGGAG | 0.19 kcal/mol
GTAATCACGTGGGGGT | 0 kcal/mol
GGGTGCACGTGGATCA | -0.04 kcal/mol
GCGGTCACGTGGAGCG | 0.16 kcal/mol

Sequence | relative binding free energy
GAGCGCACGTGGTTGC | 0.05 kcal/mol
GCGGGCACGTGTTGAA | -0.04 kcal/mol
GATTTCACGTGCAATT | 0.5 kcal/mol
GATTACACGTGTAATG | 0.3 kcal/mol
CTGAGCACGTGCTGGG | -0.21 kcal/mol
AGTGTCACGTGGTCGT | 0.02 kcal/mol
AGGCACACGTGTGTAG | 0.01 kcal/mol
TGGAGCACGTGTCCGG | -0.18 kcal/mol
TGAGGCACGTGGAGAA | -0.09 kcal/mol
CGGGGCACGTGATGCG | -0.17 kcal/mol
AGTGGCACGTGTTACG | -0.12 kcal/mol
GAACGCACGTGCGGGG | -0.14 kcal/mol
GGGTTCACGTGTATAC | 0.25 kcal/mol
CTTCGCACGTGGGGTA | -0.27 kcal/mol
GGTTACACGTGTTTAG | 0.14 kcal/mol
ACGAGCACGTGGGGTG | -0.34 kcal/mol
TTTTACACGTGGTTAT | 0.02 kcal/mol
GAAATCACGTGTGGCG | 0.22 kcal/mol
ATCGGCACGTGGTTAA | -0.11 kcal/mol
GGGTACACGTGGAGCT | 0.1 kcal/mol
CAGTTCACGTGAGGCT | 0.38 kcal/mol
